Assay results: patent publication US20230121313A1 (priority 2019, published 2023)

Tested on: subjects with MDD at imminent risk for suicide
Settings: in vivo; ESKETINSUI2001; 84 mg; double-blind phase

## CN[C@]1(c2ccccc2Cl)CCCCC1=O [esketamine, (S)-2-(2-chlorophenyl)-2-(methylamino)cyclohexanone]
  Subjects with a serious treatment-emergent adverse event: Four
